# Results from PMC7819943, “Rice protein-binding microarrays: a tool to detect cis-acting elements near promoter regions in rice”.
# This is one part of the list.
# Biological target: T1, OsWOX13 (Oryza sativa, UniProt Q5QMM3 1-267)
# T1 sequence: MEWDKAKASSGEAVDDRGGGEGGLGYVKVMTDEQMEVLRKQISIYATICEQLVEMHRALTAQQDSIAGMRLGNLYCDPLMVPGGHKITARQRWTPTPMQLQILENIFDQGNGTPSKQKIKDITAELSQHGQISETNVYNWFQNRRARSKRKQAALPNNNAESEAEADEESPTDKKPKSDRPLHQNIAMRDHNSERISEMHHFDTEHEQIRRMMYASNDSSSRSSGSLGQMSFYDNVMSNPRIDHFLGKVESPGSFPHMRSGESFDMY
# Test: protein-binding microarray (RPBM); PBS, 2% BSA, 51.3 ng/ul salmon testes DNA, 50 uM zinc acetate, 200 nM TF, 25 C, 1 h; high values mean tight binding
# Settings: protein: recombinant; tags: N-terminal polyhistidine and DsRed monomer fusion (pET32a); label: CyDye5-dUTP incorporated in the synthesized complementary strand; 3' TTTTT single-stranded linker to array surface; dsDNA, one strand shown
# Outline: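 Transcription factors, each fused N-terminally to a polyhistidine tag and DsRed, were expressed in E. coli BL21-CodonPlus and purified on Ni–NTA. A custom Agilent array was made double-stranded by primer extension with Cy5-dUTP and blocked with 2% BSA. It was incubated with 200 nM protein in PBS, 2% BSA, salmon testes DNA and 50 µM zinc acetate at 25 °C for 1 h, then washed. The binding signal is per-feature fluorescence intensity (arbitrary units) read on an Axon 4000B scanner.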
row,Sequence,binding signal
1,CCTAATTGCGCTATGATTTGACAATGTGATGCTATAGTAACGGAGTCACCTAGTGCAG,39900 fluorescence intensity (a.u.)
2,TTCACTAATCAATCAACTTAATTTGCTCTGTCAATGTGCACGGAGTCACCTAGTGCAG,61700 fluorescence intensity (a.u.)
3,CTGGCATAACTTTGACAAATTGAATGATATGCAATGGACTCGGAGTCACCTAGTGCAG,21300 fluorescence intensity (a.u.)
4,AATTAATCATGTGCTATTGTACTCCGTTTTCCGTGCTGGACGGAGTCACCTAGTGCAG,4130 fluorescence intensity (a.u.)
5,TTTTATCATTATTTCCTATCAATATGGCGTGATATCTTAACGGAGTCACCTAGTGCAG,4650 fluorescence intensity (a.u.)
6,ACTCAATCTTATTAACTTAAATTGAACTTGAACAAGAGAACGGAGTCACCTAGTGCAG,22000 fluorescence intensity (a.u.)
7,GCAGTGATTGCTATAGGTCGTGGCAGATGCGCCACTGCTCCGGAGTCACCTAGTGCAG,5640 fluorescence intensity (a.u.)
8,ACGAGATGATTACGAGTGTGTTAGTCCCGTACTGCAGTATCGGAGTCACCTAGTGCAG,25300 fluorescence intensity (a.u.)
9,AGATAATTCCTAAACATGAATACATGATCTTAGGCTATGCCGGAGTCACCTAGTGCAG,6650 fluorescence intensity (a.u.)
10,TATGATTTGTGTTAGTTGACTTCTAATTTCTTGAGAGATACGGAGTCACCTAGTGCAG,23000 fluorescence intensity (a.u.)
11,CATGATGAGCCGTGGACTGCCATTCTCCGGTGAAGCAATGCGGAGTCACCTAGTGCAG,3880 fluorescence intensity (a.u.)
12,TAGCTTATTTCTGATGATTGCAATATATTTATTGTATATGCGGAGTCACCTAGTGCAG,10600 fluorescence intensity (a.u.)
13,AATCAATCAACCATCATTCCCCGGTGCTTGGCCATGGACCCGGAGTCACCTAGTGCAG,42200 fluorescence intensity (a.u.)
14,TAAGCCTAATCAATCCATAATTAAAGAATGTTTACTGTAGCGGAGTCACCTAGTGCAG,14900 fluorescence intensity (a.u.)
15,TGGGGAGTGGGATTGAGACGGGGAAATGAATGAAGGGTTACGGAGTCACCTAGTGCAG,7150 fluorescence intensity (a.u.)
16,TAATATAATTTTCAGCTTATAATATAATTATTATAAGCTACGGAGTCACCTAGTGCAG,5270 fluorescence intensity (a.u.)
17,ATTAATTGAGAAGCACTAACCAAATAAATCTTCATGAAGCCGGAGTCACCTAGTGCAG,49000 fluorescence intensity (a.u.)
18,AGTAGCAAATTTACAAATGTCAATAAATAATTCTCCACTTCGGAGTCACCTAGTGCAG,3320 fluorescence intensity (a.u.)
19,TAGCTGATTATTACAGATGTTGGAGGATGAATAATTGTGACGGAGTCACCTAGTGCAG,13500 fluorescence intensity (a.u.)
20,TTATGTAATTATCATTTATTTTATTGTGCCTTGATTCATCCGGAGTCACCTAGTGCAG,18400 fluorescence intensity (a.u.)
21,ATCCATTTAATATATGACTGGAGTGCCAGGTTAATCCATACGGAGTCACCTAGTGCAG,3790 fluorescence intensity (a.u.)

row,Sequence,binding signal
1,ACATGCTCAATGATAGATCTAATTAAGCTTTTCATTGATTCGGAGTCACCTAGTGCAG,14100 fluorescence intensity (a.u.)
2,AGCTAATTTATGCATGCATGGATTCCGATGGAGGAGCTGTCGGAGTCACCTAGTGCAG,19400 fluorescence intensity (a.u.)
3,CGGATTTAAATTATATGTTTTATATTCGCCTTCACTAATACGGAGTCACCTAGTGCAG,3490 fluorescence intensity (a.u.)
4,ACGACGACGATTGATTAAGGAGTCCTTAGAGCATGTACAACGGAGTCACCTAGTGCAG,16300 fluorescence intensity (a.u.)
5,CCTGCACAATCACTGGCTGATGCATCTGCAATGTCACCAACGGAGTCACCTAGTGCAG,4350 fluorescence intensity (a.u.)
6,CTTAATTAATCTTATGCTAATGAGATTTCTCGTTTTGCTTCGGAGTCACCTAGTGCAG,36200 fluorescence intensity (a.u.)
7,ATTCTAATTACTAGTTTTAACATAATTGTTAATAAATGCACGGAGTCACCTAGTGCAG,31600 fluorescence intensity (a.u.)
8,ACCGTACTAATTAATCCTTGTTTATCTGGCCGACCGACCACGGAGTCACCTAGTGCAG,16500 fluorescence intensity (a.u.)
9,AACTTTTGACATGATTTCTTATATAATTACCAGAATTTGGCGGAGTCACCTAGTGCAG,25500 fluorescence intensity (a.u.)
10,TAACCTAATTGTTGTCCCAGTTCCACGGCGCCGAGCCTGTCGGAGTCACCTAGTGCAG,8140 fluorescence intensity (a.u.)
11,ACTAAGATTATGGTTATTCTGTTATGCTAACTTAGGCATACGGAGTCACCTAGTGCAG,5040 fluorescence intensity (a.u.)
12,TCTTAATGCGAATAATTTCCCACATGATGTTTTCCCTCTACGGAGTCACCTAGTGCAG,5060 fluorescence intensity (a.u.)
13,CTACAATTTATCATAAACTTGATAAAATATAAACAAATTCCGGAGTCACCTAGTGCAG,4240 fluorescence intensity (a.u.)
14,ATATTCAGATTAGTTATCTAATAGGACTCTACTTTATAGGCGGAGTCACCTAGTGCAG,4060 fluorescence intensity (a.u.)
15,GAGGAAATTATAAGAAATTATACAACGGACGTAGCTTGCCCGGAGTCACCTAGTGCAG,9840 fluorescence intensity (a.u.)
16,TGGAAATTGACTCGTCACAAGCTGGACCAGACGACCGCTTCGGAGTCACCTAGTGCAG,30500 fluorescence intensity (a.u.)
17,AGTTAGCAGAGTTAACAATGTGATTAGCTGCGTACTGGAGCGGAGTCACCTAGTGCAG,6290 fluorescence intensity (a.u.)
18,TATTAATTTGCACTGTCTCCTGATGTTTGGTTTAATTTGTCGGAGTCACCTAGTGCAG,25700 fluorescence intensity (a.u.)
19,TATGATGAACTGTCAGTTGATTTGATGTCCCTGATATGCCCGGAGTCACCTAGTGCAG,27800 fluorescence intensity (a.u.)
20,ATAACTAAATTTGATACCTTAAATAAACAAGTCAAACTTGCGGAGTCACCTAGTGCAG,15600 fluorescence intensity (a.u.)
21,TATAGATAAAATTATTAGATTTATTTACTTTTATATAGTTCGGAGTCACCTAGTGCAG,7390 fluorescence intensity (a.u.)
